The values below come from a collection of fitness landscapes (doi:10.1016/j.celrep.2020.107928).

In all, about 81,000 sequences were measured (“one-hybrid fitness for binding parS DNA”: median about -0.17, highest 2% from about 0.51 on). Some of the results follow. Some results are limits rather than exact numbers.

The labels stand for the following.
B1: Caulobacter ParB omega fusion; a variant is named by its letters at X, in order, B8GW30 (parent)
chain: MESVVVGEPGMSEGRRGLGRGLSALLGEVDAAPAQAPGEQLGGSREAPIEILQRNPDQPRRTFREEDLEDLSNSIREKGVLQPILVRPSPDTAGEYQIVAGERAWRAAQRAGLKTVPIMVRELDDLAVLEIGIIENVQRADLNVLEEALSYKVLMEKFERTQENIAQTIGKSXSHVANXMRLLXLPDEVQSYLVSGELTAXHARAIAAAADPVALAKQIIEGGLSVRETEALARKAPNLSAGKSKGGRPPRVKDTDTQALESDLSSVLGLDVSIDHRGSTGTLTITYATLEQLDDLCNRLTRGI

This assay covers variants of B1. Nature of the assay: one-hybrid fitness for binding parS DNA (scaled: cognate 1, non-cognate 0); higher = stronger binding. The note with it: with parS DNA site. Summed up:
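In E. coli USO, a HIS3 reporter with its site placed 19 bp from the promoter was used to select Caulobacter ParB variants randomised at four specificity codons. Growth lasted 48 hours at 37°C on histidine-free M9 containing 0.1 mM IPTG and 5 mM 3-AT. Fitness was taken as the log change in variant-to-wild-type read ratio from Illumina sequencing of pre- and post-selection plasmids, rescaled between the non-cognate and cognate sites.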
Take QVWI: the “one-hybrid fitness for binding parS DNA” value was at most 0.2.
As for IREL, the “one-hybrid fitness for binding parS DNA” value is at most 0.2.
The figure for KMMS is at most 0.2; for YTHA it is at most 0.2.
Then PQVT, with at most 0.2; and NTVV, with at most 0.2.
Regarding IQTS, the “one-hybrid fitness for binding parS DNA” value is at most 0.2.
Then CVVS, with at most 0.2.
Then VLNE, with at most 0.2; and LLQI, with at most 0.2; and HYAD, with at most 0.2.
The figure for HSRW is at most 0.2; for QNIG it is at most 0.2; for QDLF it is at most 0.2.
LVRR: the “one-hybrid fitness for binding parS DNA” value was at most 0.2.
Then RSLD, with at most 0.2; and RFKR, with at most 0.2; and HHLF, with at most 0.2.
ARYW: the “one-hybrid fitness for binding parS DNA” value is at most 0.2.
Then NFHD, with at most 0.2.
The figure for GLRL is at most 0.2.
Take TQPA: the “one-hybrid fitness for binding parS DNA” value is at most 0.2.
Turning to MERT, the “one-hybrid fitness for binding parS DNA” value is at most 0.2.
Then DLVV, with at most 0.2.
Regarding LAAN, the “one-hybrid fitness for binding parS DNA” value was at most 0.2.
Consider MNCF, for which the “one-hybrid fitness for binding parS DNA” value was at most 0.2.
With RHNQ, the “one-hybrid fitness for binding parS DNA” value was at most 0.2.
The figure for STFP is at most 0.2.
The figure for FEDV is at most 0.2; for RKPW it is at most 0.2.
With TPGW, the “one-hybrid fitness for binding parS DNA” value is at most 0.2.
Then RRCW, with 0.218; and CRHF, with at most 0.2; and QQTQ, with at most 0.2.
For DTAG, the “one-hybrid fitness for binding parS DNA” value was at most 0.2.
As for LFWG, the “one-hybrid fitness for binding parS DNA” value is at most 0.2.
Then GAGG, with at most 0.2; and QRAC, with at most 0.2; and LDLE, with at most 0.2.
TGHH: the “one-hybrid fitness for binding parS DNA” value was at most 0.2.
The figure for PYSM is at most 0.2; for QMSF it is at most 0.2; for CYSF it is at most 0.2.
Consider HKKS, for which the “one-hybrid fitness for binding parS DNA” value was at most 0.2.
The figure for RLTA is 0.599; for WRKA it is at most 0.2.
Then PRCM, with at most 0.2; and AGMI, with at most 0.2; and GMHT, with at most 0.2.
For the variant ADTS, the “one-hybrid fitness for binding parS DNA” value was at most 0.2.
The figure for PDPL is at most 0.2.
On to RKAR, for which the “one-hybrid fitness for binding parS DNA” value was at most 0.2.
The figure for RPLN is at most 0.2; for QFMR it is at most 0.2.
As to NNSY, the “one-hybrid fitness for binding parS DNA” value was at most 0.2.
As to RAGR, the “one-hybrid fitness for binding parS DNA” value is at most 0.2.
The figure for ALDC is at most 0.2.
Take VAPN: the “one-hybrid fitness for binding parS DNA” value is at most 0.2.
Take CLHE: the “one-hybrid fitness for binding parS DNA” value was at most 0.2.
The figure for LECG is at most 0.2.
Take FQAY: the “one-hybrid fitness for binding parS DNA” value was 0.234.
Take QPMY: the “one-hybrid fitness for binding parS DNA” value is at most 0.2.
Then WRFG, with at most 0.2; and SATE, with at most 0.2; and QLDT, with at most 0.2.
Then ARYV, with at most 0.2; and DCKC, with at most 0.2.
For YKDG, the “one-hybrid fitness for binding parS DNA” value was at most 0.2.
In the case of MTLS, the “one-hybrid fitness for binding parS DNA” value was at most 0.2.
As to CDPL, the “one-hybrid fitness for binding parS DNA” value is at most 0.2.
As for MVWT, the “one-hybrid fitness for binding parS DNA” value is at most 0.2.
Then CMSN, with at most 0.2.
The figure for LLTK is at most 0.2.
Then QTDS, with at most 0.2; and RAQF, with 0.229; and NLWG, with at most 0.2.
In the case of EPLR, the “one-hybrid fitness for binding parS DNA” value was at most 0.2.
For the variant IWGC, the “one-hybrid fitness for binding parS DNA” value was at most 0.2.
The figure for SNAC is at most 0.2.
Then VKCG, with at most 0.2; and FGNG, with at most 0.2.
Turning to RYHW, the “one-hybrid fitness for binding parS DNA” value is 0.212.
Regarding RAER, the “one-hybrid fitness for binding parS DNA” value is at most 0.2.
Turning to SDRC, the “one-hybrid fitness for binding parS DNA” value is at most 0.2.
The figure for PNPM is at most 0.2; for PVRQ it is at most 0.2; for RFCR it is at most 0.2.
Regarding DELS, the “one-hybrid fitness for binding parS DNA” value was at most 0.2.
For the variant MCPF, the “one-hybrid fitness for binding parS DNA” value was at most 0.2.
The figure for PQQS is at most 0.2.
The figure for RPPD is at most 0.2.
Then TINV, with at most 0.2; and MPAW, with at most 0.2.
Regarding FPHR, the “one-hybrid fitness for binding parS DNA” value is at most 0.2.
The figure for NCNQ is at most 0.2.
The figure for KMGR is at most 0.2; for SNHT it is at most 0.2.
The figure for SHTG is at most 0.2; for PFRP it is at most 0.2; for EWDR it is at most 0.2.
For WDLY, the “one-hybrid fitness for binding parS DNA” value is at most 0.2.
The figure for RIMP is at most 0.2; for HGVY it is at most 0.2; for ERAV it is at most 0.2.
On to SHPQ, for which the “one-hybrid fitness for binding parS DNA” value was at most 0.2.
Turning to LIAG, the “one-hybrid fitness for binding parS DNA” value is at most 0.2.
Then PMES, with at most 0.2; and NREN, with at most 0.2.
The figure for PTSV is at most 0.2.
Take CHYS: the “one-hybrid fitness for binding parS DNA” value is at most 0.2.
Then TPPK, with at most 0.2; and VCTL, with at most 0.2.
The figure for RLML is at most 0.2; for AEHK it is at most 0.2; for TAHA it is at most 0.2.
The figure for MWNV is at most 0.2.
PWLG: the “one-hybrid fitness for binding parS DNA” value was at most 0.2.
The figure for GTNM is at most 0.2; for CGRS it is at most 0.2.
The figure for PSQD is at most 0.2; for HFAL it is at most 0.2; for QPEA it is at most 0.2.
Then ARSV, with at most 0.2.
For the variant TVYT, the “one-hybrid fitness for binding parS DNA” value is at most 0.2.
As for SVLM, the “one-hybrid fitness for binding parS DNA” value is at most 0.2.
The figure for QVGC is at most 0.2; for LPKP it is at most 0.2; for HMPC it is at most 0.2.
The figure for PRVH is at most 0.2; for VISR it is at most 0.2.
The figure for HHNQ is at most 0.2; for LEAF it is at most 0.2; for FKRS it is at most 0.2.
As to FSGD, the “one-hybrid fitness for binding parS DNA” value is at most 0.2.
The figure for QGSQ is at most 0.2; for KRLS it is at most 0.2; for RAEG it is 0.852.
Take PMCC: the “one-hybrid fitness for binding parS DNA” value is at most 0.2.
The figure for QQPC is at most 0.2; for LQVG it is at most 0.2.
Then VPMT, with at most 0.2.
Then RDHR, with at most 0.2; and QIKM, with at most 0.2.
For FQSR, the “one-hybrid fitness for binding parS DNA” value was at most 0.2.
In the case of YTTR, the “one-hybrid fitness for binding parS DNA” value was at most 0.2.
Regarding AWNG, the “one-hybrid fitness for binding parS DNA” value is at most 0.2.
The figure for KTII is at most 0.2; for RCDA it is 0.567; for PCGL it is at most 0.2.
Turning to QDWG, the “one-hybrid fitness for binding parS DNA” value was at most 0.2.
The figure for GPNV is at most 0.2; for QLRD it is at most 0.2; for LWAR it is at most 0.2.
FMRG: the “one-hybrid fitness for binding parS DNA” value was at most 0.2.
Consider TLVR, for which the “one-hybrid fitness for binding parS DNA” value is at most 0.2.
For EGVR, the “one-hybrid fitness for binding parS DNA” value is at most 0.2.
The figure for WHEG is at most 0.2.
Turning to NQYG, the “one-hybrid fitness for binding parS DNA” value was at most 0.2.
The figure for LVTD is at most 0.2; for YSKQ it is at most 0.2; for TFYS it is at most 0.2.
TGYT: the “one-hybrid fitness for binding parS DNA” value is at most 0.2.
The figure for VEMG is at most 0.2.
Then LKGS, with at most 0.2.
Then THAV, with at most 0.2; and NIAS, with at most 0.2; and PQVV, with at most 0.2.
Turning to PNAL, the “one-hybrid fitness for binding parS DNA” value was at most 0.2.
The figure for VAEA is at most 0.2; for CTYV it is at most 0.2.
Then TCAY, with at most 0.2; and QIGE, with at most 0.2; and QDSY, with at most 0.2.
The figure for LTPF is at most 0.2; for NNKG it is at most 0.2; for FHKW it is at most 0.2.
Regarding QQNQ, the “one-hybrid fitness for binding parS DNA” value was at most 0.2.
As for WRKE, the “one-hybrid fitness for binding parS DNA” value is at most 0.2.
The figure for SYSG is at most 0.2; for QFPE it is at most 0.2.
Then QDKV, with at most 0.2; and ISLP, with at most 0.2; and LGMH, with at most 0.2.
Then PEYG, with at most 0.2; and KEIR, with at most 0.2.
As to VRSI, the “one-hybrid fitness for binding parS DNA” value was at most 0.2.
As to DINS, the “one-hybrid fitness for binding parS DNA” value was at most 0.2.
The figure for WPFG is at most 0.2; for EVSG it is at most 0.2.
The figure for QSVN is at most 0.2; for ACES it is at most 0.2.
The figure for TLGY is at most 0.2; for VTSC it is at most 0.2; for PRMT it is at most 0.2.
For the variant LSTL, the “one-hybrid fitness for binding parS DNA” value was at most 0.2.
